According to publication PMC12098989 (Nature Communications, 2025):

Biological target: T1, SENP5 catalytic domain (aa 568-755) (human, UniProt Q96HI0 568-755)
T1 sequence: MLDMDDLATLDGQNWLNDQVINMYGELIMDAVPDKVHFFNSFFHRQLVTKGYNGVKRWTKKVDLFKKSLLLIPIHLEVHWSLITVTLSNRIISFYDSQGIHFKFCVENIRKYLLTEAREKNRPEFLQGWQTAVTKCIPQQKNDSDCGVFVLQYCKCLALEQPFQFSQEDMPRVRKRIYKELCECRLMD
Assay: crystal structure

binding result: binds
B1: Δ14SUMO2-PA (human SUMO2, 14 residues N-terminal deletion, C-terminal propargylamide) (domain or fragment)
chain: not shown
